The nature of the series: Shake-flask solubility with spectrophotometric measurement in neat deep eutectic solvents. Format: physicochemical. As to the method:
In order to determine the solubility of the three studied phenolic acids in deep eutectic solvents, a very well-established shake-flask method coupled with spectrophotometric measurements was utilized. The initial procedure involved the preparation of various DESs, which was conducted by mixing their HBA and HBD counterparts in a glass vessel and heating the composition until the formation of a transparent, uniform liquid. […] For additional measurements, the DESs were mixed with water in varying proportions, creating aqueous DES systems. Saturated solutions of CAF, SYR, and COU were obtained by adding excess amounts of these compounds to test tubes containing either a neat deep eutectic solvent or its aqueous solution. Such samples were placed in the Orbital Shaker Incubator ES-20/60 from Biosan (Riga, Latvia) and heated for 24 h at 25 °C, 30 °C, 35 °C, and 40 °C (±0.1 °C) with simultaneous mixing at 60 rpm. Before measurements, the samples were filtered using a PTFE syringe filter from Qpore (Dallas, TX, USA) with a 0.22 μm pore size. In order to avoid possible precipitation of the saturated solutions at decreased temperatures, the test tubes, syringes, pipette tips, and filters were kept at a temperature identical to that of the samples. The spectrophotometric measurements required the preparation of calibration curves for the three APIs. This involved the preparation of a stock solution of each compound in methanol, which was later successfully diluted, and the obtained solutions of varying concentrations were measured using an A360 spectrophotometer from AOE Instruments (Shanghai, China). The wavelength range was set to 200-500 nm, and the resolution was 1 nm. The analytical wavelengths were determined to be 324 nm for caffeic acid, 273 nm for syringic acid, and 308 nm for p-coumaric acid. The final regression equations, obtained after averaging three distinct sets of measurements, are collected in Table 2 together with determination coefficients and limits of detection (LOD) and quantification (LOQ) for the calibration curves. The measurements of the samples were conducted with the same spectrophotometer and identical settings. Methanol was used for the dilution of the samples so that they could remain within the linearity range of the method. Complete spectra of the samples were recorded, but for the solubility determination, the absorbance values at a specific analytical wavelength were considered. These values were combined with the corresponding regression equations of the calibration curves and served for the calculation of the concentration of the three phenolic acids in the studied samples. The densities of such samples were also measured, and for this task 1 mL of each sample was weighed to a precision of 0.1 mg using an AS 110 R2.PLUS analytical balance from […] (Radom, Poland). The obtained densities enabled the calculation of mole fractions of CAF, SYR, and COU dissolved in the studied DESs. For each considered system, three distinct measurements were conducted, and the results were averaged.

Setting [1] is: neat DES Bet - ETG, HBA:HBD molar ratio 1:4, 25 °C.
Setting [2] is: neat DES ChCl - DEG, HBA:HBD molar ratio 1:4, 25 °C.
Setting [3] is: neat DES ChCl - GLY, HBA:HBD molar ratio 1:1, 25 °C.
Where [4] appears, read: neat DES ChCl - GLY, HBA:HBD molar ratio 1:2, 25 °C.
[5] abbreviates: neat DES ChCl - GLY, HBA:HBD molar ratio 1:4, 25 °C.
Setting [6] is: neat DES ChCl - TEG, HBA:HBD molar ratio 1:1, 25 °C.
The mark [7] stands for this setting: neat DES ChCl - TEG, HBA:HBD molar ratio 1:4, 25 °C.

Mole fraction solubility data for three molecules are collected here from publication PMC12564265, “Navigating the Deep Eutectic Solvent Landscape: Experimental and Machine Learning Solubility Explorations of Syringic, p-Coumaric, and Caffeic Acids” (International Journal of Molecular Sciences, 2025).

Further values from the same series stand in other lists.

Take `O=C(O)C=Cc1ccc(O)c(O)c1` [caffeic acid, 3,4-dihydroxycinnamic acid]: the Mole fraction solubility is recorded as 0.0435±0.0002 mole fraction under setting [1]; 0.0648±0.0005 mole fraction under setting [2]; 0.0747±0.0004 mole fraction under setting [3]; 0.0815±0.0006 mole fraction under setting [4]; 0.0756±0.0005 mole fraction under setting [5]; 0.0740±0.0005 mole fraction under setting [6]. Further, the Mole fraction solubility (neat DES ChCl - TEG, HBA:HBD molar ratio 1:2, 25 °C) amounted to 0.0835±0.0010 mole fraction and the Mole fraction solubility under setting [7] was found to be 0.0824±0.0003 mole fraction.

Regarding `O=C(O)C=Cc1ccc(O)cc1` [p-coumaric acid, 4-hydroxycinnamic acid], the Mole fraction solubility was 0.0342±0.0004 mole fraction under setting [1]; 0.0706±0.0005 mole fraction under setting [2]; 0.0525±0.0004 mole fraction under setting [3]; 0.0642±0.0005 mole fraction under setting [4]; 0.0595±0.0004 mole fraction under setting [5]; 0.0709±0.0006 mole fraction under setting [6]. Besides, the Mole fraction solubility (neat DES ChCl - TEG, HBA:HBD molar ratio 1:2, 25 °C, listed as coumaric acid) came out at 0.0997±0.0009 mole fraction and the Mole fraction solubility under setting [7] turned out to be 0.0879±0.0006 mole fraction.

On to `COc1cc(C(=O)O)cc(OC)c1O` [syringic acid, 4-hydroxy-3,5-dimethoxybenzoic acid], for which the Mole fraction solubility is, setting by setting: under setting [2], 0.0338±0.0004 mole fraction; under setting [3], 0.0213±0.0002 mole fraction; under setting [4], 0.0400±0.0002 mole fraction; under setting [5], 0.0310±0.0002 mole fraction; under setting [6], 0.0346±0.0004 mole fraction; (neat DES ChCl - TEG, HBA:HBD molar ratio 1:2, 25 °C, listed as syryngic acid) 0.0515±0.0004 mole fraction. Further, the Mole fraction solubility under setting [7] was 0.0412±0.0005 mole fraction.
